From US10751422B2, “Antibody drug conjugates (ADC) that bind to FLT3 proteins” (AGENSYS, INC., priority 2015, dated 2020)

Molecular target: T1, Recombinant human FLT3-Fc (Homo sapiens, UniProt P36888)
T1 construct: purchased R and D Systems
Assay: FLT3 ligand blocking assay on Luminex microspheres
Format: binding
Conditions: biotinylated FLT3 ligand 5 ng/mL; antibody 10 μg/mL; 60 minutes
From the text: In one experiment, the CHv62.21 MAb of the invention was confirmed to not block FL. Briefly, Recombinant human FLT3-Fc was purchased from R and D Systems. This protein was immobilized onto the surface of activated Luminex microspheres using standard sulfo-NHS/EDC chemistry according to the procedure provided by Luminex. A His-tagged version of the protein, along with several other proteins were conjugated to Luminex microspheres, and served as controls in this procedure.
In addition, FLT3 ligand was also purchased from R and D Systems. The ligand was biotinylated using Thermo Scientific EZ-Link Sulfo-NHS-LC-Biotin, No-Weigh Formula according to the manufacturer's recommendations. After two (2) hours of reacting the protein with Sulfo-NHS-LC-Biotin, unincorporated biotin was removed by dialysis against DPBS.
The ability of FLT3 immobilized onto the surface of the microspheres to bind to its biotinylated ligand was assessed by reacting the microspheres with various concentrations of biotinylated ligand, prepared in buffer containing PBS, 2% BSA, 0.05% Tween 20, and 0.1% sodium azide, for 120 minutes at RT with gentle shaking. […] Biotinylated FLT3 ligand bound to its immobilized receptor was detected with Streptavidin-R-Phycoerythrin (Moss, Inc.). The fluorescence associated with the microspheres was measured with the Luminex instrument. […]

blocking of FLT3 ligand (FL) binding to immobilized FLT3: is a non FL blocker
B1: CHv62.21: FLT3 MAb, human IgG1/kappa, heavy chain SEQ ID NO: 9, light chain SEQ ID NO: 10, CHO cell ATCC PTA-121831 (antibody, listed as Homo sapiens)
heavy: EVQLVESGGGLVRPGGSLRLSCAASGFTFSGYSINWVRQAPGKGLEWVSSISSSSNYIYYADSVKGRFTISRDNAKNSLYLQMNSLRAEDTAVYYCAREGFIAGTTFDAFDIWGQGTMVTVSS[skipping human IgG1 constant region]
light: DIQMTQSPSSLSASVGDRVTITCRASQGIRNDLGWYQQKPGKAPKRLIYAASSLQSGVPSRFSGSGSGTEFTLTISSLQPEDFATYYCLQHNGFPYTFGQGTKLEIKRTVAAPSVFIFPPSDEQLKSGTASVVCLLNNFYPREAKVQWKVDNALQSGNSQESVTEQDSKDSTYSLSSTLTLSKADYEKHKVYACEVTHQGLSSPVTKSFNRGEC
modifications: CHv62.21 heavy chain; CHv62.21 light chain
